Structures are written as SMILES. Some results are limits rather than exact numbers.

Holding throughout (assay): microbe, parasite or virus in culture
Format in all cases: cell-based

For experiment [1], the system named is influenza A/Puerto Rico/8/1934 (PR/8, H1N1) virus. Conditions: MDCK, 72 h, read-out: Anti-PR/8 (H1N1), Activities (EC50).
Another experiment deals with A/WSN/33 (H1N1). Conditions: Influenza A virus, MDCK, 72 h, read-out: A/WSN/33 EC50.
Another experiment relates to influenza B/Lee/40 virus. The settings on record: MDCK, 72 h, read-out: B/Lee/40 EC50.
Experiment [2] concerns A/Hong Kong/8/68 (HK/68, H3N2). The settings on record: Influenza A virus, MDCK cells, MOI 0.005, 72 h, CPE inhibition.

For the molecule `NS(=O)(=O)CCCC(=O)NCc1ccc2[nH]c3c(c2c1)CCCCCC3` [13D7], the EC50 in experiment [1] came to 26.3 ± 13.8 µM.
For `C=CCn1cc(CNCc2noc(-c3ccc4c(c3)OCO4)n2)c(C)n1` [11D4], the EC50 is 19.2 ± 6.28 µM in the experiment on A/WSN/33 (H1N1), 6.2 ± 2.85 µM in experiment [1], 11.3 ± 0.15 µM in the experiment on influenza B/Lee/40 virus and 25.8 ± 1.89 µM in experiment [2].
For `Cc1cccnc1CCNc1nc2nonc2nc1NCc1cccs1` [21B1], the EC50 was 57.4 ± 15.5 µM with A/WSN/33 (H1N1), 67.7 ± 43.3 µM in experiment [1], 60.4 ± 1.41 µM with influenza B/Lee/40 virus and more than 100 µM in experiment [2].
`O=C(O)[C@H]1C2CCC(CC2)[C@@H]1Nc1nc(-c2c[nH]c3ncc(F)cc23)ncc1F` [VX-787, reference compound]: the EC50 in experiment [1] is less than 0.005 µM; with influenza B/Lee/40 virus, more than 10 µM.
For `CCC(CC)O[C@@H]1C=C(C(=O)O)C[C@H](N)[C@H]1NC(C)=O` [OC, Oseltamivir carboxylate, reference compound], the EC50 in experiment [1] came to 1.78 ± 0.72 µM; in the experiment with influenza B/Lee/40 virus it was 4.04 ± 0.58 µM; in experiment [2] it was 0.004 ± 0.001 µM.
In the case of `c1csc(CNc2nc3nonc3nc2NCCCN2CCOCC2)c1` [11D2], the EC50 in experiment [1] is 0.3 ± 0.02 µM.
On the same count and under the same terms, the result for `Cc1c(-c2ccccc2F)[nH]c2ccc(CNC(=O)CCc3cc(O)no3)cc12` [11C5] reads 55.5 ± 27.7 µM.
Take `C=CCn1cc(-c2cc(-c3ccc(C(=O)O)cc3)[nH]c(=N)c2C#N)cn1` [12C5]: the EC50 in the experiment on A/WSN/33 (H1N1) is 24.1 ± 6.14 µM; in experiment [1] it was 30.9 ± 2.58 µM; with influenza B/Lee/40 virus, 25.1 ± 2.57 µM; in experiment [2], 30.1 ± 12.8 µM.
For the molecule `c1cc(Cn2ccnc2-c2nc3c(s2)CCCC3)cc(-c2nnn[nH]2)c1` [12B1], the EC50 in experiment [1] was 53.9 ± 10.4 µM.
In the case of `CCSc1ncc(-c2cc(-c3c(C)nn(C)c3C)nc(N)c2C#N)cn1` [21A5], the EC50 in the experiment on A/WSN/33 (H1N1) is 14.8 ± 6.31 µM; in experiment [1], 22.1 ± 11 µM; in the experiment on influenza B/Lee/40 virus it was 33.8 ± 0.68 µM; in experiment [2] it was 25.6 ± 18.8 µM.
As to `O=C(NCc1nc(C2CCCCC2)no1)c1cc(-c2ccccc2F)n[nH]1` [11C8], the EC50 in experiment [1] was found to be 26.4 ± 12 µM.
Still for that read-out and setting: as for `Cc1cc(CN2CCOc3c(O)cc(-c4ccccc4Cl)cc3C2)on1` [11C6], the figure is 35.6 ± 1.74 µM.

These data come from paper PMC7697191, “Identification of Novel Influenza Polymerase PB2 Inhibitors Using a Cascade Docking Virtual Screening Approach” (Molecules, 2020).
